Article PMC4336329 (PLoS ONE, 2015)
The campaign covered roughly 310,000 compounds. About 2,200 (0.71%) showed an effect of 50% or more. Effects have a minus sign here. This is one part of the list.

molecular target: human ether-à-go-go-related gene (hERG) potassium channel (human, UniProt Q12809); experiment: primary screen, population patch clamp on CHO cells stably expressing hERG
Sequence (Q12809 whole entry, looked up): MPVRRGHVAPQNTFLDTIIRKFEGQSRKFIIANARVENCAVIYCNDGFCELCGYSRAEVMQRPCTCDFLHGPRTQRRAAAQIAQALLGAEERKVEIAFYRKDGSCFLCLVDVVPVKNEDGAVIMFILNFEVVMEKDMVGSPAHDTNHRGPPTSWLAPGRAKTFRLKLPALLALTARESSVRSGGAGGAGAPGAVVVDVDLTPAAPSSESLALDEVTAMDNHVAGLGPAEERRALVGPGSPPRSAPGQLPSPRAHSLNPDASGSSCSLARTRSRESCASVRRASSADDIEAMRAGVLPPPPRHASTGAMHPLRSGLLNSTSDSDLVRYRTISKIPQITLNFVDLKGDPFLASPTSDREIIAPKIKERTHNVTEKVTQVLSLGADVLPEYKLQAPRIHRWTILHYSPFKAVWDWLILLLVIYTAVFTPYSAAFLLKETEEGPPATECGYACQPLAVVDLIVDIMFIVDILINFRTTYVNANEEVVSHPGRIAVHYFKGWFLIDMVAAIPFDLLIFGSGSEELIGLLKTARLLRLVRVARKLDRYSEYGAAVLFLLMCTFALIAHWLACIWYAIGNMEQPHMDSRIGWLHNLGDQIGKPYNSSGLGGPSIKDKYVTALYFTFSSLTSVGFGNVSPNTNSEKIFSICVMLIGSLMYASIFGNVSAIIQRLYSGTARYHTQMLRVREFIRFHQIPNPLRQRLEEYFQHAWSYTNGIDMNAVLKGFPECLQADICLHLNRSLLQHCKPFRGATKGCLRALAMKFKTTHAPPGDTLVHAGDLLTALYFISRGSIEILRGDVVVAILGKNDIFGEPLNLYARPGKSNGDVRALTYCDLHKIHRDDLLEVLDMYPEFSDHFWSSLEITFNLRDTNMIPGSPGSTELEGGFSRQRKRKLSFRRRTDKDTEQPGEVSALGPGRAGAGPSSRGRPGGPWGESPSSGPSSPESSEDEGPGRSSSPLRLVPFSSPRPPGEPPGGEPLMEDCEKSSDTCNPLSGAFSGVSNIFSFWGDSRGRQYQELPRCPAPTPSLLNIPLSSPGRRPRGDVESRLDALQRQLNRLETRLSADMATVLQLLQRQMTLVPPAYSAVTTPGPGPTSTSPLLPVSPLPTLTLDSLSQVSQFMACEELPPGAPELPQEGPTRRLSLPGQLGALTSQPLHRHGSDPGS

Row | Compound | hERG current change (%, negative = inhibition) at 1uM [%]
1 | COc1ccc(-c2cc(C(F)(F)F)nc(SCC(N)=O)n2)cc1 | 10.8
2 | Cc1ccc(NC(=O)C(=O)c2cn(CC(=O)N3CCCCC3)c3ccccc23)cc1 | 1.63
3 | Cc1ccc2[nH]c(=O)cc(C(=O)OC(C)C)c2c1 | 15.3
4 | O=C(CCCOc1ccc(Cl)cc1Cl)Nc1ccccc1C(=O)O | 4.57
5 | CC1CC(C)CN(C(=O)CCNC(=O)c2ccccc2Cl)C1 (stereo not drawn) | 4.67
6 | CCc1nnc(NC(=O)CSc2nc3cc(OC)ccc3cc2C)s1 | 5.79
7 | COC(=O)c1ccc(OC(=O)c2ccc(OC)c(OC)c2)c(OC)c1 | 17.1
8 | Cc1ccc(-n2ccn(CC(=O)NCCc3ccccc3)c(=O)c2=O)cc1C | 7.22
9 | Cc1ccc(C(=O)CN2C(=O)NC3(CCc4ccccc43)C2=O)c(C)c1 (stereo not drawn) | 3.35
10 | COc1ccc(C(C)=O)cc1CS(=O)(=O)CC(=O)NCCc1c[nH]c2ccccc12 | 2.65
11 | O=C(O)c1ccc(COc2ccccc2/C=C2\NC(=O)N(Cc3ccc(F)cc3)C2=O)cc1 | 15.6
12 | COc1ccccc1C(=O)Nc1c(C(=O)N(CCN(C)C)Cc2ccco2)oc2ccccc12 | -27.4
13 | O=C1CC(N2CCN(c3cccc(C(F)(F)F)c3)CC2)C(=O)N1c1ccccc1 (stereo not drawn) | 20.4
14 | CC(=O)Nc1ccc(OCC(O)CN2CCN(c3ccc(C)c(Cl)c3)CC2)cc1 (stereo not drawn) | -2.33
15 | O=C(NC1CC1)C1=C[C@H](c2ccc(C(F)(F)F)cc2)C[C@H](OCc2ccc(CO)cc2)O1 | 9.86
16 | NS(=O)(=O)c1ccc(CCNC(=O)C(=O)NCC2OCCN2S(=O)(=O)c2ccc(F)cc2)cc1 (stereo not drawn) | 22.2
17 | COc1ccc(CC(=O)Nc2sc3c(c2C(N)=O)CCCC3)cc1OC | 10.7
18 | O=C1/C(=C/c2cccs2)Cc2ccccc21 | 13.1
19 | CSCC[C@H](N)C(=O)N1CCC(C(=O)N[C@H](C)C(=O)Nc2ccc(C(C)C)cc2)CC1 | 16.3
20 | COc1cc(/C=C2\SC(=Nc3ccc(O)cc3)NC2=O)cc(OC)c1O | 0.574
21 | O=C(c1nsc(Cl)c1Cl)N1CCCCC1 | 4.93
22 | Cc1ccc(C)c(S(=O)(=O)N2CCN(C(=O)c3n[nH]c(=O)c4ccccc34)CC2)c1 | 4.79

Row | Compound | hERG current change (%, negative = inhibition) at 1uM [%]
23 | COc1cc(CNCc2ccccn2)ccc1OCC(=O)NC1CCCCC1.Cl | 10.1
24 | O.O=c1c(=O)n(O)c2ccccc2n1O | 6.07
25 | COc1ccc(C(C)=O)cc1COC(=O)c1ccc(N)c([N+](=O)[O-])c1 | 25.3
26 | CC(=O)N1CCN(S(=O)(=O)c2ccc(Cl)cc2F)CC1 | 11.1
27 | COc1cccc(C(=O)/C=C/Nc2ccc(NC(C)=O)cc2)c1 | 6.76
28 | COC(=O)c1cnc(SCc2ccc(C)cc2)n1C | -6.36
29 | CC(=O)Nc1cccc(/C(C)=N/NS(=O)(=O)c2ccc(C)cc2)c1 | 14.4
30 | Cc1c(C(=O)N2CCOCC2)sc(NC(=O)C(C)C)c1C#N | 16.1
31 | Cc1nn(-c2ccccc2)c(C)c1-c1cc(C(=O)N/N=C/c2ccc(O)cc2)[nH]n1 | 12.2
32 | S=c1[nH]nc(COc2ccc(Cl)cc2)n1C1CCCCC1 | 12.3
33 | CCN1CCc2c(sc(NC(=O)c3ccc(S(=O)(=O)N(CC)c4ccccc4)cc3)c2C(N)=O)C1 | 9.48
34 | COc1cccc(-n2nc3c(=S)[nH]nc(C)c3c2C)c1 | 13.7
35 | Cc1ccc(/C=C/C(=O)Nc2cccnc2)o1 | -0.271
36 | CC(C)CC(=O)NS(=O)(=O)c1ccc(NS(C)(=O)=O)cc1 | 9.38
37 | CC(=O)C1=C(O)C(=O)N(c2ccc(O)cc2)C1c1ccc(Cl)cc1 (stereo not drawn) | 17.5
38 | CCOC(=O)C1CCN(C(=S)Nc2cc(C)ccc2C)CC1 | 5.31
39 | Cc1cccc2nc(-c3ccco3)c(Nc3ccc4c(c3)OCO4)n12 | 5.48
40 | Fc1ccc2nc(C3CCN(Cc4nc(CC5CC5)no4)CC3)[nH]c2c1 | -22
41 | CCC(C)OC(=O)C1=C(C)NC(=O)CC1c1ccccc1OC (stereo not drawn) | 4.31
42 | O=C(CSc1ccc(-c2cccc([N+](=O)[O-])c2)nn1)NCc1ccccc1 | 8.35
43 | CCc1nnc(SCc2ccc([N+](=O)[O-])cc2)nc1CC | -4.7
44 | COc1ccc(/C=N/NC(=O)c2ccc(CSc3nncn3C)cc2)cc1OC | 8.59

Row | Compound | hERG current change (%, negative = inhibition) at 1uM [%]
45 | COCC(=O)N1CCN(c2cccc(Cl)c2)CC1 | 0.951
46 | CCN(CC(=O)Nc1ccc(OC)c(Cl)c1)CC(=O)NC(C)C | 6.63
47 | CC(C)CCn1nnnc1CN1CCN(C(=O)c2ccco2)CC1.Cl | 18.9
48 | COC(=O)c1cnn2c(C(F)(F)F)cc(-c3ccc(F)cc3)nc12 | -4.17
49 | CCOC(=O)CN(Cc1sccc1C)C(=O)Nc1ccc(OCC)cc1 | 7.78
50 | CC1=CC(C)(C)N(C(=O)CSc2nnc(-c3ccc(C)cc3)o2)c2ccc(C)cc21 | 8.68
51 | CC(=O)Nc1ccnc(-c2cccnc2)n1 | 7.56
52 | C/C=C/C=C/C(=O)OC(C)C(=O)Nc1cc([N+](=O)[O-])ccc1OC (stereo not drawn) | 3.97
53 | Cn1c(=O)n(C)c2cc([N+](=O)[O-])c(N3CCN(S(C)(=O)=O)CC3)cc21 | 15.9
54 | COCCNc1ccc(N2C(=O)CCCC2=O)cc1[N+](=O)[O-] | 15.4
55 | COCC(C)NC(=O)c1noc2c1CCc1cc(OC)ccc1-2 (stereo not drawn) | -2.64
56 | CN1/C(=C\C(=O)C[n+]2cccc(C(N)=O)c2)C(C)(C)c2ccccc21.[Cl-] | 18.9
57 | COC(=O)c1cc(S(=O)(=O)N(C)C2CCCCC2)oc1C | 10.3
58 | Cc1ccc(C)c(-c2nc3ccc(N)cc3[nH]2)c1 | -4.27
59 | O=C(O)c1ccc(N2C(=O)/C(=C/C=C/c3ccccc3)SC2=S)cc1 | 4.88
60 | O=C(Nc1cccc(O)c1)C(Cc1ccccc1)N1C(=O)c2cccc3cccc(c23)C1=O (stereo not drawn) | 6.05
61 | Cc1ccc(-c2csc(NC(=O)c3ccc(F)cc3)c2C(=O)O)cc1 | 16
62 | Cc1ccc(-c2nc(Nc3ccc(O)cc3)c3ccccc3n2)cc1 | 11.5
63 | CCOCCCNC(=O)CN1CCN(S(=O)(=O)c2ccc3c(c2)CCC3)CC1 | 13.1
64 | Cc1ccc(CNCC(=O)Nc2ccc(N3CCOCC3)cc2)cc1.O=C(O)C(=O)O | 10.5
65 | O=C1CC(C(F)(F)F)=NN1 | 15.9
66 | CC(C)c1ccc(-c2cc(C(=O)NN3CCN(C)CC3)c3ccccc3n2)cc1 | 10.1

Row | Compound | hERG current change (%, negative = inhibition) at 1uM [%]
67 | CS(=O)(=O)c1ccccc1-c1nc(-c2cccc(Cl)c2)no1 | 5.57
68 | CCN(CCCNC(=O)CCn1c(=S)[nH]c2cc3c(cc2c1=O)OCO3)c1cccc(C)c1 | 11.5
69 | Cc1ccc2cc(C)c3nnc(SCC(=O)NCc4ccco4)n3c2c1 | -5.71
70 | Cc1nnc(SCC(=O)N2CCN(S(=O)(=O)c3ccc(Cl)cc3)CC2)n(N)c1=O | -1.36
71 | CN(C)S(=O)(=O)N1CCC(c2ccc(F)cc2)C(COc2ccc3c(c2)OCO3)C1 (stereo not drawn) | 12.4
72 | Cc1cc(C)c2c(N)c(C(=O)Nc3ccc([N+](=O)[O-])cc3)sc2n1 | 17.4
73 | O=C(O)c1cccc(N2CCCCS2(=O)=O)c1 | 12.5
74 | OCCC1CN(Cc2cc(F)ccc2-n2cccn2)CCN1C1CCCC1 (stereo not drawn) | 3.09
75 | O=C(Cn1cc(C(=O)C2CC2)c2ccccc21)NC1CCCC1 | 10.9
76 | O=C(Nc1ccc2ccccc2n1)Nc1ccccc1F | 10.3
77 | CCOCN(C(=O)Cn1cnc2ccccc21)c1c(C)cccc1CC | 9.93
78 | CCCn1c(NC(=O)CN2C(=O)NC3(CCCCC3)C2=O)nc2ccccc21 | -7.25
79 | COc1cc(C2C3=C(CCCC3=O)OC3=C2C(=O)CCC3)ccc1OCC(=O)Nc1ccccc1 | 14.8
80 | CCOc1ccc(-n2c(C)cc(C(=O)NS(=O)(=O)c3ccc(C)cc3)c2C)cc1 | -3.98
81 | Cc1ccc2c(c1)nnc1nnc(SCC(=O)O)n12 | 10.1
82 | Cc1ccc(NC(=O)CCSc2nnc(-c3ccco3)o2)cc1 | 9.02
83 | COC(=O)c1ccc(-n2c(C)cc(C(=O)CSc3cccc[n+]3[O-])c2C)cc1 | 17.8
84 | CCCCCCCCC(=O)NCc1ccc(O)c(OC)c1 | 3.62
85 | Cc1ccc2c(c1)cc(CN(Cc1ccc3c(c1)OCO3)C(=O)c1ccccc1)c1nnnn12 | 7.15
86 | CCCCOC(=O)c1ccc(N=Nc2c(C)c(C#N)c(O)[nH]c2=O)cc1 | 6.48
87 | COc1ccc(S(=O)(=O)N2CCCCC2)cc1NC(=O)CCCOc1ccccc1 | 5.13
